According to PMC5892938:
Some of the results follow. At the low end of the ranking the order means little.

Biological target: GST-SBP-SLBP (stem-loop binding protein) (UniProt Q14493)
Experiment: targeted RNA Bind-n-Seq;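 further: DESeq read counts versus GST-SBP nonspecific binding control pulldown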
Conditions: RBNS binding buffer: 25 mM Tris pH 7.5, 150 mM KCl, 3 mM MgCl2, 0.1% Tween, 0.5 mg/mL BSA, 1 mM DTT; 27 nM protein, 750 pM RNA pool; temperature not stated; high values mean tight binding

| Sequence | binding signal (log2 fold change) |
| --- | --- |
| GGUCACGUCUCAAUCAACUCUAUCUCCAGGGAAAUCCCUGGCUUUUUCAACAGCUCGCAGUCAAG | -0.198 |
| GGUCACGUCUCAAUCAACUCAACUUCAGGAGUUUCCUCCUGCAUAUUCAACAGCUCGCAGUCAAG | 0.0361 |
| GGUCACGUCUCAAUCAACUCUUUUUCCAGGGAAACCCCUGGUAAUUUCAACAGCUCGCAGUCAAG | 0.0358 |
| GGUCACGUCUCAAUCAACUCUACUCCAGGAGUUUCCUCCUGUUAACUCAACAGCUCGCAGUCAAG | -0.0843 |
| GGUCACGUCUCAAUCAACUCUUCGCCCAGGGAAACCCCUGGUUUUCUCAACAGCUCGCAGUCAAG | 0.129 |
| GGUCACGUCUCAAUCAACUCAUUUCCAGGAGUUUCCUCCUGUAAUCUCAACAGCUCGCAGUCAAG | 0.0272 |
| GGUCACGUCUCAAUCAACUCCCACGAGGGGGGGAAAACCCCUUUACCCUCAUUCUCAACAGCUCGCAGUCAAG | -0.295 |
| GGUCACGUCUCAAUCAACUCACUAGAGGGGGGGAAAACCCCUUUACCCUCCGCAUCAACAGCUCGCAGUCAAG | 0.144 |
| GGUCACGUCUCAAUCAACUCAAACGAGGGGGGGAAAACCCCUUUACCCUCAAACUCAACAGCUCGCAGUCAAG | 0.0653 |
| GGUCACGUCUCAAUCAACUCUAUCGAGGGGGGGAAAACCCCUUUACCCUCAACCUCAACAGCUCGCAGUCAAG | -0.355 |
| GGUCACGUCUCAAUCAACUCUAUAGAGGGGGGGAAAACCCCUUUGCCCUCGAAAUCAACAGCUCGCAGUCAAG | 0.0494 |
| GGUCACGUCUCAAUCAACUCCAUAGAGGGGGGGAAAACCCCUUUGCCCUCCAAUUCAACAGCUCGCAGUCAAG | -0.196 |
| GGUCACGUCUCAAUCAACUCAACUCCAGGAGUUUACUCCUGUAUAUUCAACAGCUCGCAGUCAAG | -0.0282 |
| GGUCACGUCUCAAUCAACUCAUCGCCCAGGGAAAGCCCUGGUUUUCUCAACAGCUCGCAGUCAAG | -0.0339 |
| GGUCACGUCUCAAUCAACUCUAUGUCAGGAGUUUUCUCCUGUUUAUUCAACAGCUCGCAGUCAAG | -0.216 |
| GGUCACGUCUCAAUCAACUCUAUUCCCAGGGAAACCCCUGGUUAACUCAACAGCUCGCAGUCAAG | -0.34 |
| GGUCACGUCUCAAUCAACUCUACGCCAGGAGUUUUCUCCUGUUUUUUCAACAGCUCGCAGUCAAG | -0.0966 |
| GGUCACGUCUCAAUCAACUCAUACGAGGGGGGGAAAACCCCUUUACCCUCACUUUCAACAGCUCGCAGUCAAG | 0.0472 |
| GGUCACGUCUCAAUCAACUCAAUCCCCAGGGAAAACCCUGGUUUUCUCAACAGCUCGCAGUCAAG | -0.154 |
| GGUCACGUCUCAAUCAACUCUUUUCCAGGAGUUUACUCCUGUAAUCUCAACAGCUCGCAGUCAAG | -0.234 |
| GGUCACGUCUCAAUCAACUCAUUUCCCAGGGAAAGCCCUGGCAAUCUCAACAGCUCGCAGUCAAG | 0.289 |
| GGUCACGUCUCAAUCAACUCAUCCCCAGGAGUUUGCUCCUGCAUAUUCAACAGCUCGCAGUCAAG | 0.0747 |
| GGUCACGUCUCAAUCAACUCAUCGCCAGGAGUUUCCUCCUGUUAUUUCAACAGCUCGCAGUCAAG | 0.122 |
| GGUCACGUCUCAAUCAACUCUAUCCCCAGGGAAAUCCCUGGCUUUCUCAACAGCUCGCAGUCAAG | -0.204 |
| GGUCACGUCUCAAUCAACUCAUCUCCCAGGGAAAACCCUGGUAAAUUCAACAGCUCGCAGUCAAG | -0.132 |

| Sequence | binding signal (log2 fold change) |
| --- | --- |
| GGUCACGUCUCAAUCAACUCAAGUCCAGGAGUUUCCUCCUGUUUUUUCAACAGCUCGCAGUCAAG | 0.261 |
| GGUCACGUCUCAAUCAACUCUUAAGAGGGGGGGAAAACCCCUUUGCCCUCCAUUUCAACAGCUCGCAGUCAAG | -0.266 |
| GGUCACGUCUCAAUCAACUCUAGUCCCAGGGAAACCCCUGGUUAAUUCAACAGCUCGCAGUCAAG | 0.192 |
| GGUCACGUCUCAAUCAACUCUCCUGAGGGGGGGAAAACCCCUUUACCCUCUACAUCAACAGCUCGCAGUCAAG | -0.363 |
| GGUCACGUCUCAAUCAACUCACAAGAGGGGGGGAAAACCCCUUUACCCUCCACUUCAACAGCUCGCAGUCAAG | 0.191 |
| GGUCACGUCUCAAUCAACUCUUUUCCCAGGGAAAGCCCUGGUAUAUUCAACAGCUCGCAGUCAAG | 0.123 |
| GGUCACGUCUCAAUCAACUCAUCUCCCAGGGAAACCCCUGGCAAUCUCAACAGCUCGCAGUCAAG | -0.0505 |
| GGUCACGUCUCAAUCAACUCAUUUUCCAGGGAAAUCCCUGGCUUUCUCAACAGCUCGCAGUCAAG | 0.128 |
| GGUCACGUCUCAAUCAACUCUUUUCCCAGGGAAAUCCCUGGUUAAUUCAACAGCUCGCAGUCAAG | 0.00842 |
| GGUCACGUCUCAAUCAACUCUUUUUCCAGGGAAAACCCUGGCAAUUUCAACAGCUCGCAGUCAAG | -0.0223 |
| GGUCACGUCUCAAUCAACUCUAGUCCCAGGGAAAGCCCUGGCAAUUUCAACAGCUCGCAGUCAAG | -0.642 |
| GGUCACGUCUCAAUCAACUCAGUCCCCAGGGAAACCCCUGGUUUUUUCAACAGCUCGCAGUCAAG | -0.218 |
| GGUCACGUCUCAAUCAACUCAAUCUCAGGAGUUUACUCCUGUAUUCUCAACAGCUCGCAGUCAAG | -0.0202 |
| GGUCACGUCUCAAUCAACUCAAACGAGGGGGGGAAAACCCCUUUACCCUCACUUUCAACAGCUCGCAGUCAAG | -0.23 |
| GGUCACGUCUCAAUCAACUCUACUCCAGGAGUUUUCUCCUGUAAUCUCAACAGCUCGCAGUCAAG | 0.215 |
| GGUCACGUCUCAAUCAACUCUUCGUCAGGAGUUUUCUCCUGUAUAUUCAACAGCUCGCAGUCAAG | 0.0391 |
| GGUCACGUCUCAAUCAACUCAACUUCCAGGGAAAACCCUGGUUAAUUCAACAGCUCGCAGUCAAG | 0.0708 |
| GGUCACGUCUCAAUCAACUCUUUCUCCAGGGAAAGCCCUGGCUAUGUCAACAGCUCGCAGUCAAG | 0.2 |
| GGUCACGUCUCAAUCAACUCUUUAGAGGGGGGGAAAACCCCUUUGCCCUCCACAUCAACAGCUCGCAGUCAAG | 0.0912 |
| GGUCACGUCUCAAUCAACUCUUCUCCAGGAGUUUCCUCCUGUUUACUCAACAGCUCGCAGUCAAG | 0.00433 |
| GGUCACGUCUCAAUCAACUCAUCGUCAGGAGUUUUCUCCUGUUAAUUCAACAGCUCGCAGUCAAG | 0.0201 |
| GGUCACGUCUCAAUCAACUCUUCCGAGGGGGGGAAAACCCCUUUACCCUCAUCCUCAACAGCUCGCAGUCAAG | -0.289 |
| GGUCACGUCUCAAUCAACUCAACUCCCAGGGAAAACCCUGGUUUUCUCAACAGCUCGCAGUCAAG | 0.148 |
| GGUCACGUCUCAAUCAACUCAAUCCCCAGGGAAACCCCUGGCAAACUCAACAGCUCGCAGUCAAG | -0.0511 |
| GGUCACGUCUCAAUCAACUCUUUCUCAGGAGUUUUCUCCUGUUAUUUCAACAGCUCGCAGUCAAG | -0.138 |

| Sequence | binding signal (log2 fold change) |
| --- | --- |
| GGUCACGUCUCAAUCAACUCAACUUCCAGGGAAAACCCUGGCAAAUUCAACAGCUCGCAGUCAAG | 0.118 |
| GGUCACGUCUCAAUCAACUCUAUCUCAGGAGUUUCCUCCUGCAUACUCAACAGCUCGCAGUCAAG | -0.0155 |
| GGUCACGUCUCAAUCAACUCUUUCUCAGGAGUUUACUCCUGCAUACUCAACAGCUCGCAGUCAAG | -0.071 |
| GGUCACGUCUCAAUCAACUCUUUUUCAGGAGUUUUCUCCUGUAUUCUCAACAGCUCGCAGUCAAG | 0.0346 |
| GGUCACGUCUCAAUCAACUCCCACGAGGGGGGGAAAACCCCUUUACCCUCAUCAUCAACAGCUCGCAGUCAAG | -0.0943 |
| GGUCACGUCUCAAUCAACUCAUUCUCCAGGGAAAGCCCUGGUUUUUUCAACAGCUCGCAGUCAAG | -0.0442 |
| GGUCACGUCUCAAUCAACUCUUUCCCCAGGGAAAGCCCUGGUAUUUUCAACAGCUCGCAGUCAAG | -0.0971 |
| GGUCACGUCUCAAUCAACUCUAUCUCCAGGGAAAGCCCUGGCAAUUUCAACAGCUCGCAGUCAAG | -0.196 |
| GGUCACGUCUCAAUCAACUCAAUUCCAGGAGUUUGCUCCUGUAUACUCAACAGCUCGCAGUCAAG | -0.0454 |
| GGUCACGUCUCAAUCAACUCAGUCUCAGGAGUUUCCUCCUGUAUUUUCAACAGCUCGCAGUCAAG | 0.0157 |
| GGUCACGUCUCAAUCAACUCUCACGAGGGGGGGAAAACCCCUUUACCCUCAACCUCAACAGCUCGCAGUCAAG | -0.255 |
| GGUCACGUCUCAAUCAACUCAUAAGAGGGGGGGAAAACCCCUUUACCCUCCAUCUCAACAGCUCGCAGUCAAG | -0.165 |
| GGUCACGUCUCAAUCAACUCAGUCUCCAGGGAAAGCCCUGGCAAAUUCAACAGCUCGCAGUCAAG | -0.238 |
| GGUCACGUCUCAAUCAACUCUAUCGAGGGGGGGAAAACCCCUUUACCCUCACCGUCAACAGCUCGCAGUCAAG | -0.0904 |
| GGUCACGUCUCAAUCAACUCAAUUUCCAGGGAAAUCCCUGGUUAACUCAACAGCUCGCAGUCAAG | -0.352 |
| GGUCACGUCUCAAUCAACUCAUCCCCCAGGGAAAUCCCUGGCUAAUUCAACAGCUCGCAGUCAAG | -0.158 |
| GGUCACGUCUCAAUCAACUCAGUUCCAGGAGUUUUCUCCUGCUAAUUCAACAGCUCGCAGUCAAG | -0.415 |
| GGUCACGUCUCAAUCAACUCAUCGCCCAGGGAAAUCCCUGGUAUUCUCAACAGCUCGCAGUCAAG | -0.206 |
| GGUCACGUCUCAAUCAACUCAUUUCCCAGGGAAAACCCUGGCUUAUUCAACAGCUCGCAGUCAAG | 0.0997 |
| GGUCACGUCUCAAUCAACUCUUCCUCCAGGGAAAUCCCUGGUAAUUUCAACAGCUCGCAGUCAAG | 0.0152 |
| GGUCACGUCUCAAUCAACUCUUUCCCCAGGGAAAACCCUGGUAUAUUCAACAGCUCGCAGUCAAG | -0.12 |
| GGUCACGUCUCAAUCAACUCAUCCUCAGGAGUUUACUCCUGCUAACUCAACAGCUCGCAGUCAAG | 0.177 |
| GGUCACGUCUCAAUCAACUCUUCUUCAGGAGUUUCCUCCUGUAUUUUCAACAGCUCGCAGUCAAG | -0.126 |
| GGUCACGUCUCAAUCAACUCAUUCUCAGGAGUUUACUCCUGUAUAUUCAACAGCUCGCAGUCAAG | -0.122 |
